Results reported in PubChem BioAssay AID485294 (National Center for Advancing Translational Sciences (NCATS), 2010).
The campaign covered roughly 370,000 compounds. About 150 (0.041%) were called active. Inconclusive means that the source gave no clear call. Such entries were picked first, then a sample of the others. Calls come from the whole dose curve; as a rule, active = well fitted inhibition curve with a large enough effect; inconclusive = small, poorly fitted or top-dose-only effect; inactive = flat fitted curve, though single readings scatter. No potency is given beside an inconclusive call; the fits are too rough.

What follows are compounds tested against Beta-lactamase (Escherichia coli (strain K12)) (UniProt P00811) (assay: qHTS Inhibitors of AmpC Beta-Lactamase (assay with detergent)). Conditions: AmpC hydrolysis of nitrocefin, absorbance 480 nm, 0.01% Triton; activity change, negative = inhibition: at 114 µM (top of the series).
Procedure, shortened: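 20 mM phosphate pH 7.0 + 0.01% (detergent screen) or 0.0001% Triton X-100; 5.3 nM AmpC reagent; cpd preinc 15 min RT; nitrocefin (800 uM stock) to start; A480 q20 s × 4 min; Activity was normalised to no-enzyme and no-compound control wells.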
Note: nearly all actives have a fitted effect of over 25% in size.
Potency is the fitted concentration of half-maximal effect; tags give direction and shape of the fitted curve.
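Throughout, for activity change, negative = inhibition: 0% = no-compound wells and -100% = no-enzyme wells.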

Chain of UniProt P00811 (P00811 whole entry, looked up): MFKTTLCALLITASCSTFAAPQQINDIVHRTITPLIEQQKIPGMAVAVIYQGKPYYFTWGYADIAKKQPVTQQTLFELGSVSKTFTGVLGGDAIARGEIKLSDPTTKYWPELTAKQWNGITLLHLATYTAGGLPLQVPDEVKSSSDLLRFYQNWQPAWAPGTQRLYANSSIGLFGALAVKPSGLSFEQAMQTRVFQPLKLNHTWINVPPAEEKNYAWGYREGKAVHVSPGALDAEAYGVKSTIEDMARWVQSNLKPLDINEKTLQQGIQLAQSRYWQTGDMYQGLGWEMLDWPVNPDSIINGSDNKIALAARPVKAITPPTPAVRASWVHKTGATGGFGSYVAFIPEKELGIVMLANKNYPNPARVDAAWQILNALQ

SMILES	Potency	activity change, negative = inhibition
Cn1c(=O)[nH]c(=O)c2c1nc(NCc1ccccc1)n2CCCc1ccccc1	inconclusive [inhibitor, full curve, poor fit]	–
O=C(Nc1ccccc1)c1ccco1	inconclusive [inhibitor, partial curve, poor fit]	–
COc1ccc(N2CCN(c3nc(NCCc4ccc(OC)c(OC)c4)nc(OC)n3)CC2)cc1	–	inactive: 5.02%
Cc1cc(OCC(=O)Nc2ccccc2N2CCCCC2)ccc1C(C)C	inconclusive [inhibitor, partial curve]	–
CCOc1ccc(-n2c(-c3ccccc3)nnc2-c2ccccc2)cc1	inconclusive [inhibitor, full curve, poor fit]	–
O=C(Nc1ccc(F)cc1)N(CCCN1CCOCC1)Cc1cc2cc3c(cc2[nH]c1=O)OCO3	inconclusive [inhibitor, partial curve, poor fit]	–
O=C(Nc1c(C(=O)O)oc2ccc(Br)cc12)c1ccccc1	inconclusive [inhibitor, full curve, poor fit]	–
Cc1cc(NC(=O)C(C)SCC(=O)OCc2ccc([N+](=O)[O-])cc2)no1 (stereo unspecified)	inconclusive [inhibitor, partial curve, poor fit]	–
COc1ccc(OC)c(C(=O)CSc2nc3ccccc3n2CC(=O)NC(C)(C)C)c1	inconclusive [inhibitor, full curve, poor fit]	–
O=C(NNC(=O)c1csc(N2CCOCC2)n1)c1ccc(Cl)nc1	inconclusive [inhibitor, partial curve]	–
CCC(C)c1ccc(O)c(N)c1 (stereo unspecified)	inconclusive [inhibitor, full curve, poor fit]	–
N/C(=N\NC(=O)Nc1ccc(Cl)cc1)c1ccccn1	–	inactive: -0.415%
O=C(NCc1ccccc1Cl)c1ccc[nH]1	–	inactive: 1.93%
CCN(CC)C(=O)C1CCCN(Cc2ccccc2)C1 (stereo unspecified)	inconclusive [inhibitor, full curve, poor fit]	–
CC1CC(=O)N(CC(=O)Nc2ccc3c(c2)OCCO3)c2ccccc2S1 (stereo unspecified)	inconclusive [inhibitor, full curve, poor fit]	–
Cc1nn(-c2ccc(C(F)(F)F)cn2)c(C)c1Oc1ccccc1O	–	inactive: -0.539%
Cn1c(O)c(C=NCCN2CCNCC2)c(=O)n(C)c1=O	inconclusive [inhibitor, single point]	–
COCCn1nnnc1C(c1ccc(Cl)cc1)N1CCN(C(=O)c2ccco2)CC1 (stereo unspecified)	inconclusive [inhibitor, full curve, poor fit]	–
O=C(c1cccs1)N1CCN(S(=O)(=O)N2CCOCC2)CC1	inconclusive [inhibitor, full curve, poor fit]	–
O=S(=O)(O)c1cc(OS(=O)(=O)c2ccccc2)cc2ccccc12	inconclusive [inhibitor, full curve, poor fit]	–
COc1ccc(CC(=O)O/N=C(\N)c2ccc(OC)cc2)cc1	–	inactive: 1.25%

SMILES	Potency	activity change, negative = inhibition
CN1C(=O)c2ccccc2Sc2ccc(NC(=O)Cc3c(F)cccc3Cl)cc21	–	inactive: 0.425%
CCCN(CC(=O)Nc1ccccc1C)C(=O)/C=C/c1ccc(OCC)c(OC)c1	inconclusive [inhibitor, full curve]	–
Cc1occc1C(=O)Nc1c(Cl)cccc1Cl	inconclusive [inhibitor, full curve, poor fit]	–
CCO[C@@H]1OC(C(=O)N2CCN(Cc3ccc4c(c3)OCO4)CC2)=C[C@H](c2csc3ccccc23)[C@H]1CCCO	–	inactive: 1%
COC(=O)c1cc(S(=O)(=O)NCC2CCN(Cc3ccc(Cl)cc3)CC2)cn1C	inconclusive [inhibitor, full curve, poor fit]	–
CSc1nnc(NC(=O)C2CCCCC2)s1	inconclusive [inhibitor, full curve]	–
COC(=O)CN(c1ccc(OC)cc1)S(=O)(=O)c1ccc(OC)c(OC)c1	inconclusive [inhibitor, full curve, poor fit]	–
COc1ccc(N2CCN(C(=O)Cn3nnc(-c4ccc(N(C)C)cc4)n3)CC2)cc1	inconclusive [inhibitor, single point]	–
COc1cc(C=C2C(=O)c3ccccc3C2=O)cc(OC)c1OC	inconclusive [inhibitor, full curve, poor fit]	–
C=Cn1cc[n+](CC(=O)c2ccc(OC)cc2)c1	inconclusive [inhibitor, partial curve]	–
O=C(Nc1ccccc1-c1ccccc1)c1ccccc1	inconclusive [inhibitor, full curve, poor fit]	–
CCN(CC)CCNC(=O)NC(=O)c1ccc(Cl)cc1	inconclusive [inhibitor, partial curve]	–
COc1ccc(N2CCN(C(=O)C3CC(O)CN3S(=O)(=O)c3ccc([N+](=O)[O-])cc3)CC2)cc1 (stereo unspecified)	–	inactive: -10.5%
N#C/C(=C(/O)COC(=O)c1ccc2c(c1)OCCO2)c1nc2ccccc2[nH]1	inconclusive [inhibitor, full curve, poor fit]	–
CNc1ccc(Br)cc(C(=O)/C=C/c2ccc(OC)cc2)c1=O	inconclusive [inhibitor, partial curve, poor fit]	–
Nc1nc(Nc2ccccc2)nc(C(F)(F)F)n1	–	inactive: -12.3%
COc1ccc(CN2C(=O)[C@@H]3C(c4ccccc4Cl)=NO[C@@H]3C2=O)cc1	inconclusive [inhibitor, partial curve]	–
COc1cccc2c1OC1(C)CC2NC(=O)N1 (stereo unspecified)	inconclusive [inhibitor, full curve]	–
CN(C)c1ccc(NC(=O)CN2C(=O)c3ccccc3C2=O)cc1	inconclusive [inhibitor, full curve]	–
COc1ccccc1[C@@H]1C(c2cccc(C)c2)=NN(c2ccccc2)[C@H]1C(=O)N1CCOC1=O	inconclusive [inhibitor, full curve, poor fit]	–
